In the supplement of paper PMC12217912:
The other results are listed elsewhere or left out. The full chains were built here from the parent and the listed change. Values near 0.05 are background.

B1: TEV protease; numbered along this chain (parent)
chain: MGESLFKGPRDYNPISSSICHLTNESDGHTTSLYGIGFGPFIITNKHLFRRNNGTLVVQSLHGVFKVKDTTTLQQHLVDGRDMIIIRMPKDFPPFPQKLKFREPQREERICLVTTNFQTKSMSSMVSDTSCTFPSGDGIFWKHWIQTKDGQCGSPLVSTRDGFIVGIHSASNFTNTNNYFTSVPKNFMELLTNQEAQQWVSGWRLNADSVLWGGHKVFMVKPEEPFQPVKEATQL

Variants of: B1
Test: raw area under fraction-flipped curve 0-4 h after induction (AUC4h, not background-subtracted), DNA-recorder readout of cleavage of the substrate (dimensionless); higher = more cleavage of the substrate by the protease variant
Details: temperature: 34 °C; time window: 0-4 h after rhamnose induction
Method: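 In vivo DNA recorder in E. coli TOP10(DE3) ΔrhaA at 34 °C. Each TEVp single-site mutant (parent TEVp 0) is paired with a single-site variant of the 7-mer TEVs (canonical ENLYFQ|S). The substrate sits between flexible linkers in a Bxb1-sfGFP-TEVs-SsrA fusion, so cleavage stabilises Bxb1 and speeds flipping of a recombination array, read by NGS. The value is the raw area under the fraction-flipped curve over 0-4 h after rhamnose induction (AUC4h), with ≥20 reads per time point. It is not background-subtracted; inactive controls average about 0.047.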
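Further: Bxb1 expression induced with 0.2% (w/v) L-rhamnose at OD600 near 0.5, cultures sampled hourly, flipped fraction per protease–substrate barcode pair counted by paired-end Illumina sequencing.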

Variant	area with substrate ENAYFQS	area with substrate ENCYFQS	area with substrate ENDYFQS	area with substrate ENEYFQS	area with substrate ENFYFQS	area with substrate ENGYFQS	area with substrate ENIYFQS	area with substrate ENMYFQS	area with substrate ENNYFQS	area with substrate ENPYFQS	area with substrate ENQYFQS	area with substrate ENRYFQS	area with substrate ENSYFQS	area with substrate ENTYFQS	area with substrate ENVYFQS	area with substrate ENWYFQS	area with substrate ENKYFQS	area with substrate ENHYFQS	area with substrate ENYYFQS
D208Q	0.0757	0.064	0.0551	0.0491	0.0488	0.0605	0.0704	0.0538	0.0596	0.0615	0.0565	0.0517	0.0571	0.059	0.0637	0.0072			
D208K	0.0554	0.0592			0.0495								0.0694				0.0771		
V200L	0.0434		0.0514	0.0471	0.0961	0.0705	0.101	0.0701			0.0811	0.0584	0.0483						
V200H	0.0658	0.0557	0.0641	0.0629	0.0503	0.0553	0.0759	0.0647			0.0377		0.055	0.123	0.0647	0.0597	0.0553	0.0588	0.0682
V200W	0.062							0.0614	0.0635			0.0505	0.0725		0.0552				
V200P	0.0481	0.0347		0.048		0.0473	0.0442		0.0593			0.0929	0.069	0.0585					0.0708
T174D	0.0614	0.0641	0.0654	0.0608		0.0586	0.103		0.0617	0.0663	0.0575	0.0432	0.0676	0.0581	0.0667		0.0769	0.0725	0.0561
R160D	0.062	0.0558	0.0673	0.0672	0.041	0.0661		0.0836	0.0622		0.0526		0.0697	0.071	0.082				0.0455
R160V	0.0527	0.0746	0.0657	0.0564	0.0531	0.0614	0.0894		0.0718	0.0743	0.0541	0.0681	0.0588	0.0621				0.0573	
R160K	0.0619	0.0747		0.0592		0.063					0.0557				0.0699			0.0838	
R160I	0.0857	0.0662	0.0674	0.062	0.0639	0.0603		0.079	0.0542	0.0586	0.0532	0.0326	0.0763	0.0665	0.0792	0.0702	0.065	0.0743	0.024
D161V	0.0438	0.0685	0.0574	0.0562	0.0532	0.0596	0.0627	0.0408	0.0608		0.0491	0.0544	0.0397		0.0674	0.0455	0.0528		0.06
Q197W	0.0455	0.0679	0.0647	0.0509	0.0617		0.08	0.0695	0.0574	0.0754	0.0676	0.0585	0.0708	0.0403	0.0846	0.0583	0.0589		0.0693
Q198K	0.0628	0.064	0.0556	0.0669		0.0779	0.0999		0.0501		0.059	0.0573	0.0686		0.0829		0.0633	0.0726	
N175K	0.063	0.0588	0.0737	0.0613	0.0414		0.0852	0.0577	0.067	0.0623	0.0702	0.0675	0.0529	0.0543	0.0608	0.055	0.0683	0.0578	
C152W	0.0562		0.0631	0.0559	0.0572	0.0589	0.0886		0.0635	0.0492	0.0556	0.0537	0.0559	0.0622	0.0616		0.0532	0.0587	
C152V	0.066	0.0552	0.0508	0.0574	0.0655	0.0584	0.0819	0.0504	0.0723	0.0677	0.0684	0.0525	0.0453	0.0527	0.0852		0.0454	0.0657	
T176F	0.0415	0.026	0.056	0.0504	0.0529							0.0528	0.0458	0.067	0.0545	0.0667		0.0595	
T176M	0.0612	0.0924	0.0698	0.0653	0.0619	0.0506			0.0612	0.0497	0.0595	0.0583	0.0545		0.0636		0.0529	0.0532	
T176N	0.0635		0.0585		0.0681	0.0643				0.0513	0.0553	0.0774	0.0669		0.0685		0.0139	0.0639	
T176C	0.0659	0.0562	0.0662	0.0457	0.0611	0.067			0.0381	0.0636	0.054	0.0609	0.0583	0.0586	0.0782			0.0586	
T176I	0.0591		0.0583	0.0606	0.0579	0.0643	0.0691	0.0662	0.0741	0.0593	0.0622	0.0559	0.0251	0.0523	0.0561	0.0518	0.061	0.109	
T176V	0.0427	0.0577	0.0741	0.0593					0.0385		0.0581							0.0678	0.0671
R204H	0.0547	0.0664	0.0037	0.0676	0.0689	0.054	0.118	0.0647	0.0653	0.0571	0.0596	0.0458	0.0958	0.0638	0.0604		0.0644	0.0575	
N177E	0.0565	0.0727	0.0691	0.0645	0.074	0.0693	0.0832	0.0701	0.0603	0.0536	0.0669	0.0662	0.0648	0.0661	0.0654	0.042	0.0606		0.0648
V165E	0.0522	0.0536	0.0588		0.0551	0.0433	0.0508	0.052	0.0584	0.0623	0.0631	0.0521	0.0659	0.0558	0.0471	0.0664	0.0495	0.0556	0.0523
